Measured values from the supplement of paper PMC10126150.
Values marked as one replicate rest on one cluster of the flow cell; about a third of the high ones do not repeat.

Test system: ATP
Assay: switch fluorescence ratio, 500 uM ATP over buffer (Cy3 cluster intensity, sum of 5 cycles each) (fold (ratio)); higher = stronger signal-on switching upon ATP binding; sequences stand for … in TCGTCGGCAGCGTCAGATGTGTATAAGAGACAGTTTTTTTTTTTTTTTTTTTTTTTTT…TC
Conditions: aptamer strand: ATP DNA aptamer (quencher-CACCTGGGGGAGTATTGCGGAGGAAGG + anchor), 100 nM annealed; ATP concentration: 500 uM; one replicate
Procedure, shortened: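 Exposure to 500 uM ATP lasted 15 min at 22 °C before imaging, and a selection-buffer image was taken beforehand, for Cy3-labelled switching-strand clusters on a modified Illumina MiSeq flow-cell annealed to 100 nM quencher-labelled ATP aptamer. Five buffer/ATP cycles were run with NaOH stripping and re-annealing between them. The fluorescence ratio per cluster is summed target-cycle over summed buffer-cycle Cy3 intensity, averaged per switch-domain sequence. Clusters outside 100-1000 RFU were excluded.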

Row | Sequence | switch fluorescence ratio
1 | ATCGTTTTGG | 0.995
2 | TCGAATTTCC | 1.02
3 | AATCGCGCTA | 1.01
4 | AGTCGAATTC | 0.967
5 | GATATAATAG | 1
6 | ACAATATATT | 1.04
7 | TAGAGATGAG | 1.01
8 | AAGTGTCACT | 1.03
9 | ACAAGGCTAC | 1.33
10 | GGGTATTCCT | 0.985
11 | TTCTCTACG | 1.56
12 | TGGATTACAT | 0.936
13 | AGATGTTCTG | 0.978
14 | ATAGGCCGAC | 1.03
15 | ATAATTTGAG | 1.02
16 | CACGCGTTTC | 1.12
17 | TATCTGAATC | 0.991
18 | GGCGATCCTC | 1.12
19 | GTTCTGTGTC | 0.858
20 | AGGGGTAAGC | 1.01
21 | GATGCTATA | 1.02
22 | ACCTGTGCCT | 1.07
23 | CCTATACACG | 1.05

Row | Sequence | switch fluorescence ratio
24 | AGCACGGCCA | 1.05
25 | TAAACCGTCG | 1.26
26 | ATTAAGCTTT | 0.998
27 | CAAGCCGGTG | 1.02
28 | TTCTAGTACT | 1.01
29 | GGGTGCTTGT | 1.02
30 | AATAAATGCG | 0.999
31 | AGTTTACTTA | 1
32 | GGAAAATGCT | 0.995
33 | TTTATTAGCG | 1.02
34 | AACTTAGAAC | 1.03
35 | CGGCAAGTTT | 1.13
36 | TGGTAGTTCC | 1.04
37 | TCCCCATTG | 1.12
38 | GGGTAATCGT | 0.996
39 | GGCAGATCAC | 1.02
40 | CGTCGAAAAC | 1.04
41 | CGGACGAGG | 1.03
42 | GGTTTGCCCT | 0.97
43 | GGTAATGTG | 1.01
44 | GGTGGTCGTA | 1.08
45 | CCGAGTGTTG | 1.03
46 | ATGCCGTGTT | 1.05

Row | Sequence | switch fluorescence ratio
47 | CAAAAGGTCT | 1.02
48 | TTGAAGCCGG | 0.98
49 | CAAGACTCCT | 1.77
50 | TTCTAGATT | 0.996
51 | CTGTGAAGAG | 0.998
52 | TAATAATGTT | 0.932
53 | GATAGTCTGA | 1
54 | TTCCATCTAT | 1
55 | AGCCTACTTA | 1.02
56 | TTACATTGCA | 1.02
57 | GCATATGACA | 0.942
58 | CTATGCTTGG | 0.981
59 | CAATGGGTGC | 1.05
60 | CTCTAAAATA | 3.67
61 | ACGGGTAGGA | 1
62 | CTTCGGCGAT | 1.99
63 | AACCGTGCTT | 1.07
64 | TATCCGGTTG | 1.01
65 | ATCCAACCCG | 1.08
66 | GTCTGGTTGG | 1.03
67 | CGACGAGGCA | 2.13
68 | TACAAAATAG | 2.82
69 | AAATAGTATA | 0.994

Row | Sequence | switch fluorescence ratio
70 | CGCCTTACGC | 1.14
71 | CAGCCCGCCT | 1.02
72 | TCATGAAAGA | 0.923
73 | AGCGTGCTT | 0.966
74 | CATCTTAGGG | 1.02
75 | AAGGGGTGTC | 0.985
76 | AACGTCGCG | 1.03
77 | GGCTCAGTA | 0.987
78 | TAGGGTTAGC | 1.03
79 | ATACCGTCGT | 1.07
80 | CTCAAGGTCA | 1
81 | TGCCGGTGGG | 1.01
82 | TCCGGAGATT | 1.77
83 | GGGCACAAGG | 0.987
84 | AGTTAACGGC | 1.03
85 | TAAGATTGGG | 0.979
86 | TCTACTCGCA | 1.42
87 | TGGTATGCT | 0.962
88 | CGGTTTACTC | 1.07
89 | CCTGGACGTG | 0.98
90 | GTTGAAGCAT | 1
91 | GGATAAAGAG | 0.965
92 | CACGACTAAA | 1.08

Row | Sequence | switch fluorescence ratio
93 | AACTTTCACT | 1.07
94 | CGATAGCGAT | 1.59
95 | AAAATATATA | 1.04
96 | CTGACCGGGA | 1.08
97 | CTTCGTATGT | 1.05
98 | CAGTCATGTA | 0.983
99 | TCTACGCCAG | 1.07
100 | CGTGGCTAGC | 0.975
101 | GGTATAGGTT | 1.01
102 | CAGCCCCCGC | 1.11
103 | AGGTCAGTAT | 0.991
104 | CAATGGACGC | 1.04
105 | GTCTGTTACG | 1.05
106 | TTGATAGGAC | 1.08
107 | TAGTACCACG | 1.01
108 | AAAACTAATT | 1.04
109 | ATGAGTTC | 1.02
110 | CGTGTACTAA | 1.07
111 | TGGCAGTTGA | 1.03
112 | ATCCTCTCTT | 1.02
113 | GGTTATTTGC | 1.07
114 | CTGCATGCTG | 1.03
115 | CTACTAAGT | 1.06

Row | Sequence | switch fluorescence ratio
116 | TATCGGGCCT | 1.05
117 | GAAGTTAGAC | 1.34
118 | GCAAAATGCT | 0.981
119 | GGTGTCGTAT | 1.09
120 | ATTTGATACA | 1.01
121 | CAATTTCTAC | 0.99
122 | GGGACTTTCA | 1.01
123 | GGCATTTCTT | 0.985
124 | ACATCAGGGC | 1.04
125 | TCCACGCTTA | 1.06
126 | CGCGGAGAGC | 1.01
127 | AAAAGGAGCA | 1.01
128 | CCCCTAATC | 1.21
129 | CGGAACGTAG | 1.01
130 | TTATATAAAC | 1.04
131 | TTCGTGGAAG | 1.11
132 | GGAGGAATAG | 4.52
133 | GGATGGAGAT | 1
134 | CGTTCTACAA | 0.952
135 | TAAAGCTTTA | 0.987
136 | CTTGCACGGC | 1.01
137 | CCTAATATC | 1.22
138 | GCTCGCAATT | 2.57

Row | Sequence | switch fluorescence ratio
139 | ATGTCCGACA | 0.999
140 | TGTTGGCAAC | 0.952
141 | TGAGTTCAG | 0.969
142 | AGTTTGTGGA | 1.06
143 | GGTTCAGCTA | 1
144 | TACCCGTGAT | 1.21
145 | CAGAGGTCTT | 0.957
146 | CGGTTTTAT | 0.988
147 | CCTAACGTCA | 1.25
148 | CAAAGTAAGT | 0.969
149 | TGCCTGCTTT | 0.958
150 | TTATCATTCT | 1.02
151 | CGGGCTCCGG | 1.04
152 | TGGGCAGCT | 0.985
153 | TTCGTGGATA | 1.04
154 | GACTCTTCGG | 1.01
155 | GGTAAGAACG | 1.02
156 | AGGAATGTTG | 0.986
157 | GGGGATAGG | 0.984
